We go through 28 molecules from the antibiotic and cytotoxicity screens of Wong et al. (2023).

The structures appear in SMILES notation. This is one part of the list.

The test system of one assay is HSkMC (human skeletal muscle cells). Nature of the assay: cytotoxicity call (relative viability < 0.9). The following applies: 10 µM.
Consider `Cc1ccc(S(=O)(=O)N(C)C[C@H]2OCCCC[C@@H](C)Oc3ccc(NS(=O)(=O)c4ccc(F)cc4)cc3C(=O)N([C@@H](C)CO)C[C@H]2C)cc1`, for which the cytotoxicity call is “inactive”.

As for `C[C@@H]1CCCCO[C@@H](CN(C)C(=O)Nc2ccc(C(F)(F)F)cc2)[C@@H](C)CN([C@H](C)CO)C(=O)c2cc(NS(C)(=O)=O)ccc2O1`, the cytotoxicity call was “inactive”. On to `C[C@@H]1CN([C@H](C)CO)C(=O)c2cc(NC(=O)CCN3CCOCC3)ccc2O[C@H]1CN(C)S(C)(=O)=O`, for which the cytotoxicity call is “inactive”.

A further assay relates to HepG2. Put plainly: cytotoxicity call (relative viability < 0.9). The following applies: 10 µM.
On to `C[C@H](CO)N1C[C@H](C)[C@@H](CN(C)C(=O)Nc2ccc(C(F)(F)F)cc2)Oc2ccc(NC(=O)Nc3ccc(C(F)(F)F)cc3)cc2C1=O`, for which the cytotoxicity call was “active”. On to `CCNC(=O)C[C@H]1C=C[C@@H](NC(=O)C2CC2)[C@@H](CO)O1`, for which the cytotoxicity call is “inactive”. Take `C[C@@H]1CN([C@H](C)CO)C(=O)c2cc(NC(=O)C3CCCCC3)ccc2O[C@@H](C)CCCCO[C@H]1CN(C)S(=O)(=O)c1cccs1`: the cytotoxicity call was “inactive”.

In the case of `C[C@@H]1CCCCO[C@H](CN(C)C(=O)Nc2ccc3c(c2)OCO3)[C@H](C)CN([C@H](C)CO)C(=O)c2cc(NS(=O)(=O)c3ccccc3)ccc2O1`, the cytotoxicity call is “inactive”. As for `C[C@@H]1CCCCO[C@H](CN(C)S(=O)(=O)c2ccc(F)cc2)[C@H](C)CN([C@@H](C)CO)C(=O)c2cc(NC(=O)Nc3cccc4ccccc34)ccc2O1`, the cytotoxicity call was “inactive”. Still for that read-out and setting: to `C[C@H](CO)N1C[C@H](C)[C@H](CN(C)Cc2ccccc2)Oc2ccc(NC(=O)Nc3ccc(C(F)(F)F)cc3)cc2C1=O` belongs “active”.

Turning to `C=c1nnsc1=C1NC(c2cc(C)on2)=NO1`, the cytotoxicity call is “inactive”. Regarding `C[C@@H]1CN([C@@H](C)CO)C(=O)c2cc(NC(=O)Nc3cccc4ccccc34)ccc2O[C@@H](C)CCCCO[C@@H]1CN(C)C(=O)Nc1ccccc1`, the cytotoxicity call is “inactive”. Regarding `COCC(=O)N(C)C[C@@H]1Oc2cc(C#CCN(C)C)ccc2S(=O)(=O)N([C@@H](C)CO)C[C@H]1C`, the cytotoxicity call is “inactive”.

With `COc1ccc(S(=O)(=O)Nc2ccc3c(c2)C(=O)N([C@@H](C)CO)C[C@@H](C)[C@H](CN(C)Cc2ccc(C(F)(F)F)cc2)OCCCC[C@@H](C)O3)cc1`, the cytotoxicity call is “active”. Turning to `COc1ccc(-c2cnc3c(c2)C(=O)N([C@H](C)CO)C[C@H](C)[C@H](CN(C)S(=O)(=O)c2ccc(F)cc2)O3)cc1`, the cytotoxicity call is “inactive”. Consider `C[C@H](CO)N1C[C@H](C)[C@@H](CN(C)C(=O)CN2CCOCC2)Oc2cc(C#Cc3cccc(F)c3)ccc2S1(=O)=O`, for which the cytotoxicity call was “inactive”. Take `COc1ccc(S(=O)(=O)N(C)C[C@@H]2OCCCC[C@@H](C)Oc3ccc(NS(=O)(=O)c4ccc(Cl)cc4)cc3C(=O)N([C@H](C)CO)C[C@@H]2C)cc1`: the cytotoxicity call was “inactive”. Turning to `C[C@@H]1CN([C@H](C)CO)C(=O)c2cccc(NS(=O)(=O)c3cccs3)c2O[C@H]1CN(C)Cc1ccncc1`, the cytotoxicity call was “inactive”. As to `C[C@H]1CN([C@@H](C)CO)C(=O)c2cccc(NC(=O)C3CCOCC3)c2O[C@@H]1CN(C)Cc1ccc(Oc2ccccc2)cc1`, the cytotoxicity call was “inactive”.

`C[C@H](CO)N1C[C@H](C)[C@@H](CN(C)Cc2cccc(F)c2)OCc2ccccc2-c2c(n(C)c3ccccc23)C1=O`: the cytotoxicity call is “inactive”. The same measure, in the same setting: to `CC(C)C#Cc1cnc2c(c1)C(=O)N([C@@H](C)CO)C[C@H](C)[C@H](CN(C)C(=O)c1ccc3c(c1)OCO3)O2` belongs “inactive”; to `COc1ccc(S(=O)(=O)N(C)C[C@H]2Oc3c(NS(=O)(=O)c4ccc(C)cc4)cccc3C(=O)N([C@@H](C)CO)C[C@@H]2C)cc1`, “inactive”.

For the molecule `C[C@H](CO)N1C[C@H](C)[C@H](CN(C)C(=O)Nc2ccc(F)cc2)OCCCC[C@H](C)Oc2ccc(NC(=O)Cc3ccccc3)cc2C1=O`, the cytotoxicity call was “inactive”.

For `C[C@H](CO)N1C[C@H](C)[C@H](CN(C)Cc2ccc(C(=O)O)cc2)OCCCC[C@H](C)Oc2ccc(NC(=O)c3ccccc3)cc2C1=O`, the cytotoxicity call was “inactive”.

For the molecule `C[C@@H]1CN([C@H](C)CO)C(=O)c2cccc(NS(=O)(=O)c3cccs3)c2O[C@H]1CN(C)CC1CC1`, the cytotoxicity call is “inactive”.

Consider `CC(S)C(=O)NCC(=O)O` (stereo not drawn), for which the cytotoxicity call is “inactive”. For `C[C@H](CO)N1C[C@H](C)[C@@H](CN(C)Cc2ccc(-c3ccccc3)cc2)Oc2ccc(NC(=O)Cc3cn(C)c4ccccc34)cc2CC1=O`, the cytotoxicity call was “inactive”. The same measure, in the same setting: to `CC(C)NC(=O)N(C)C[C@@H]1Oc2ccc(NC(=O)C3CCCCC3)cc2C(=O)N([C@@H](C)CO)C[C@H]1C` belongs “inactive”; to `Cc1noc(C)c1NC(=O)Nc1ccc2c(c1)C(=O)N([C@@H](C)CO)C[C@@H](C)[C@H](CN(C)C(=O)Nc1ccccc1)OCCCC[C@H](C)O2`, “inactive”.
